Test results as given in PubChem BioAssay AID2675 (National Center for Advancing Translational Sciences (NCATS), 2010).
Among all 280,000 compounds or so, about 100 (0.036%) were called active. This list was built around the results that the source calls inconclusive (neither active nor inactive); the mix of calls is not that of the screen. The call rests on the fitted dose curve; in most records, active means well fitted inhibition curve with a large enough effect in the signal ratio, with a control signal flat (not every such curve was filed as active); inconclusive means small, poorly fitted or top-dose-only effect, or effect the other way, or a change in a side signal; inactive means no such curve, though single readings can be large or run the other way; the % refers to the signal ratio. Potencies beside an inconclusive call are fits to weak or partial responses and may not hold up. “Side channel” marks fits to a control or component signal instead of the main read-out.

target: Muscleblind-like protein 1 (Homo sapiens) (UniProt Q9NR56); assay: qHTS Assay for Inhibitors of MBNL1-poly(CUG) RNA binding; details: TR-FRET MBNL1-His/biotin-(CUG)12 binding, 665/545 ratio; activity change, negative = inhibition: at 57.5 µM (top of the series)
Procedure, shortened: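 His-tagged MBNL1 binding to biotinylated (CUG)12 RNA was measured by TR-FRET using terbium anti-His antibody (0.055 ng/ul final) and streptavidin-XL665 (5 nM final). Compounds were titrated 92 nM to 58 uM; 60 min at room temperature.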
On the % scale 0 is the no-effect control and ±100 the full control effect; potency means the concentration at half of the fitted maximal effect; tags describe the fitted curve by direction and shape or compound fluorescence and quenching.

UniProt Q9NR56, sequence (Q9NR56 whole entry, looked up): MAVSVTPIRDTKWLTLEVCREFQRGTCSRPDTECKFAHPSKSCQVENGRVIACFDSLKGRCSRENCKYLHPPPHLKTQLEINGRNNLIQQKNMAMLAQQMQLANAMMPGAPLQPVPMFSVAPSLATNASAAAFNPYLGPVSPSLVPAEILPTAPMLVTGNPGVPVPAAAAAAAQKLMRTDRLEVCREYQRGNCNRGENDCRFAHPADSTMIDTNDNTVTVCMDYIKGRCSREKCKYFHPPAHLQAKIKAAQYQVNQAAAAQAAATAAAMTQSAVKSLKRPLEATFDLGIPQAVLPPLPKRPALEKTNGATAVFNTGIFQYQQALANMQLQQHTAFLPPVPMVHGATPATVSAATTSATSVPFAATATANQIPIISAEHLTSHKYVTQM

SMILES	Potency	activity change, negative = inhibition
CCCCNC(=O)N(O)C1N(CCCC)C(=O)N(CC(=O)OC)C1(C)C (stereo not given)	inconclusive: 39.8 µM [quencher, side channel, single point]	–
CCN1CCN(C(=O)c2ccc3c(c2)S(=O)(=O)c2ccccc2C3=O)CC1	inconclusive: 12.6 µM [quencher, side channel, partial curve]	–
CCOC(=O)Cc1nnc2c(Nc3ccc(Cl)cc3)nc3nonc3n12	inconclusive: 20 µM [quencher, side channel, partial curve]	–
COc1ccc(N(CC(=O)Nc2cc(C)ccc2C)S(=O)(=O)c2c(C)[nH]c(=O)[nH]c2=O)cc1	–	inactive: -2.04%
CCOc1cc(/C=C2/NC(=O)NC2=O)cc([N+](=O)[O-])c1O	inconclusive: 12.6 µM [quencher, side channel, partial curve]	–
O=S(=O)(c1ccc(Br)cc1)n1c(Cc2ccccc2)nc2ccccc21	inconclusive: 1.26 µM [fluorescent, side channel, partial curve]	–
N#Cc1cc2sc3nnc(-c4ccncc4)n3c2cc1C#N	inconclusive: 14.1 µM [quencher, side channel, partial curve]	–
CN(C)c1ccc(N=Nc2ccc(S(=O)(=O)O)cc2)c2ccccc12	inconclusive: 28.2 µM [quencher, partial curve]	–
COc1ccc2cc(C(=O)OC(C)C)sc(=O)c2c1OC	inconclusive: 0.158 µM [quencher, side channel, full curve, poor fit]	–
Cc1ccc2c(c1)C1CN(C)CCC1N2Sc1ccccc1[N+](=O)[O-] (stereo not given)	inconclusive: 31.6 µM [quencher, side channel, partial curve]	–
COc1cc(CN2CCN(c3cccc(C)c3C)CC2)cc(Br)c1O	–	inactive: -16.6%
Cc1ncc(CO)c(/C=N/NC(=O)c2ccccc2Br)c1O	inconclusive: 10 µM [quencher, side channel, partial curve]	–
C(=C\c1ccccn1)/c1cccnc1	inconclusive: 25.1 µM [quencher, side channel, partial curve]	–
Cc1nc2sc(C(N)=O)c(N)c2c2c1CCCC2	inconclusive: 14.1 µM [quencher, side channel, partial curve]	–
CCOC(=O)Nc1ccc(NCc2ccc(F)cc2)nc1N	inconclusive: 14.1 µM [quencher, side channel, partial curve]	–
O=C(NCc1cccs1)C1CCN(S(=O)(=O)c2cccc([N+](=O)[O-])c2)CC1	inconclusive: 25.1 µM [quencher, side channel, partial curve]	–
CN(C)/C=C/C(=O)/C=C/c1ccc(Cl)cc1Cl	inconclusive: 39.8 µM [quencher, side channel, single point]	–
O=C(/C=C/c1ccc(S(=O)(=O)N2CCOCC2)cc1)OCC(=O)c1ccc([N+](=O)[O-])cc1	inconclusive: 14.1 µM [quencher, side channel, partial curve, poor fit]	–
O=S1(=O)CCC(N=Cc2ccc(-c3ccc(Cl)cc3)o2)C1 (stereo not given)	inconclusive: 15.8 µM [quencher, side channel, partial curve]	–
O=C(CCC(=O)Nc1ccc(F)cc1)N/N=C/c1cccs1	inconclusive: 22.4 µM [quencher, side channel, single point]	–

SMILES	Potency	activity change, negative = inhibition
Cc1nc(SCC(=O)OCc2ccccc2)c(C#N)c(-c2ccccc2)c1C(=O)Nc1ccccc1	inconclusive: 35.5 µM [quencher, side channel, single point]	–
COc1ccc(OC)c(NC(=O)C2CCCN(S(=O)(=O)c3cccc4nsnc34)C2)c1 (stereo not given)	inconclusive: 3.98 µM [quencher, side channel, partial curve]	–
O=C(Nc1ccc(O)cc1)c1ccc2c(c1)C(=O)N(Cc1cccnc1)C2=O	inconclusive: 2.24 µM [quencher, full curve]	–
Cc1cc2nn(-c3ccc(Cl)cc3)nc2cc1N	–	inactive: -1.44%
CN1CCN(c2nc(-c3ccc(Cl)cc3Cl)nc3ccccc23)CC1	–	inactive: -3.13%
CCOc1ccccc1N1CCN(Cc2cc3c(cc2[N+](=O)[O-])OCO3)CC1	inconclusive: 28.2 µM [quencher, side channel, single point]	–
CC[n+]1c(/C=C/c2ccc(N(C)C)cc2)ccc2ccccc21	inconclusive: 3.98 µM [quencher, side channel, partial curve]	–
CN1CCN(C(=O)c2ccc3c(c2)S(=O)(=O)c2ccccc2C3=O)CC1	inconclusive: 11.2 µM [quencher, partial curve]	–
COC(=O)C1=C(C)N(C)C(=O)/C1=C\c1ccco1	inconclusive: 39.8 µM [quencher, side channel, single point]	–
Cc1cc2ccccn2c1C(=O)c1cccc([N+](=O)[O-])c1	inconclusive: 28.2 µM [quencher, side channel, single point]	–
c1ccc(COc2ccc(OCCCN3CCCCC3)cc2)cc1	–	inactive: -7.55%
COC(=O)CSc1cc(C)nc2ccc(OC)cc12	inconclusive: 35.5 µM [quencher, side channel, single point]	–
CCN1C(=O)/C(=C/c2ccc(OC)c(OC)c2)N=C1SCC(=O)NCc1ccco1	inconclusive: 17.8 µM [quencher, side channel, partial curve]	–
CCOc1ncccc1C(=O)OCC(=O)N(CC(C)C)C1CCS(=O)(=O)C1 (stereo not given)	–	inactive: -21.9%
Cc1cc(Cl)ccc1OCc1n[nH]c(=S)n1C1CCCCC1	inconclusive: 39.8 µM [quencher, side channel, single point]	–
CCn1c(SCC(=O)N2c3ccccc3CCc3ccccc32)nnc1-c1ccc(OC)cc1	inconclusive: 0.1 µM [fluorescent, side channel, full curve]	–
COc1cc(C2Oc3ccccc3C=C2[N+](=O)[O-])cc(OC)c1OC (stereo not given)	–	inactive: 2.52%
COC(=O)C(C)(C)ONC(=O)Nc1ccccc1[N+](=O)[O-]	inconclusive: 7.94 µM [quencher, side channel, full curve, poor fit]	–
C=CCn1c(-c2cccc(Cl)c2)n[nH]c1=S	–	inactive: 32.2%
Cc1cccc2cc(C#N)c(SCC(=O)N3CC(=O)Nc4ccccc43)nc12	–	inactive: 56.5%

SMILES	Potency	activity change, negative = inhibition
Cc1ccc(C)c(NC(=S)NCCc2ccc(F)cc2)c1	–	inactive: -5.57%
Cc1ccc(Nc2ccc(C(N)=O)cc2[N+](=O)[O-])cc1	inconclusive: 0.891 µM [fluorescent, side channel, full curve]	–
C/C(=N\NC(=O)CNc1ccc(F)cc1)c1cc2ccccc2o1	inconclusive: 35.5 µM [quencher, side channel, partial curve]	–
Cc1ccc(NS(=O)(=O)c2cc(C(=O)N3CCc4ccccc4C3)ccc2Cl)cc1	–	inactive: -2.4%
CC1CCC2(CC1)NC(=O)N(CC(=O)Nc1sc3c(c1C(N)=O)CCC3)C2=O (stereo not given)	–	inactive: -1.77%
CCOC(=O)CSc1nc2ccccc2n2cnnc12	inconclusive: 31.6 µM [quencher, side channel, single point]	–
O=c1c(-c2cc3ccccc3o2)[n+]([O-])c2ccccc2n1OCc1ccccn1	inconclusive: 1.58 µM [quencher, side channel, full curve]	–
CCC(=O)NC1=C(Nc2ccc(N)cc2)C(=O)c2ccccc2C1=O	inconclusive: 6.31 µM [quencher, side channel, partial curve]	–
CCOC(=O)C1=C(C)NC(C)=C(C(=O)OCCNC(=O)c2cccnc2)C1c1cccc([N+](=O)[O-])c1 (stereo not given)	inconclusive: 25.1 µM [quencher, side channel, single point]	–
O=C(N/N=C/c1cccc([N+](=O)[O-])c1O)c1cccs1	inconclusive: 28.2 µM [activator, single point]	–
COCCn1c(=NC(=O)C(C)(C)C)sc2cc([N+](=O)[O-])ccc21	inconclusive: 12.6 µM [quencher, side channel, single point]	–
COc1cccc(/C=C2\Oc3ccc(O)cc3C2=O)c1O	inconclusive: 3.98 µM [quencher, side channel, full curve]	–
Cc1ccc(C(=O)N/C(=C\c2cccs2)C(=O)NC2CCCCC2)cc1	inconclusive: 44.7 µM [quencher, side channel, partial curve, poor fit]	–
COC(=O)c1ccc(COc2cccnc2[N+](=O)[O-])cc1	inconclusive: 14.1 µM [quencher, partial curve]	–
CC1CN(C(=O)C(Sc2ccccc2)c2ccccc2)CC(C)O1 (stereo not given)	inconclusive: 14.1 µM [fluorescent, side channel, partial curve]	–
Cc1cc(CNC(=O)COc2cc(F)ccc2[N+](=O)[O-])c2ccccc2n1	inconclusive: 28.2 µM [quencher, side channel, single point]	–
C(=N\N=C\c1cccnc1)/c1cccnc1	inconclusive: 0.251 µM [quencher, side channel, full curve, poor fit]	–
Cc1ccc(S(=O)(=O)Nc2ccc(Cl)cc2C(=O)c2ccc(F)cc2)cc1	inconclusive: 0.126 µM [fluorescent, side channel, partial curve]	–
Cc1ccc(CNC(=O)c2ccc(Cn3nc(C)c(Cl)c3C)o2)cc1	–	inactive: 1.94%
COc1ccc(-n2c(=O)c3ccccc3c3ccccc3c2=O)cc1	inconclusive: 35.5 µM [fluorescent, side channel, partial curve, poor fit]	–
